Laboratory results taken from the RNAGym collection of RNA variant scans (doi:10.1093/nar/gkz1192).
The source gives no read counts; variants with many changes may rest on few reads.

B1: CPEB3 Ribozyme (parent)
chain: UAACAGGGGGCCACAGCAGAAGCGUUCACGUCGCAGCCCCUGUCAGAUUCUGGUGAAUCUGCGAAUUCUGCUGUAUAUCUC

Variants of: B1
Test: self-cleavage, relative activity (ratio to wild type); higher = more cleavage; in vitro, sequencing
Method in brief: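 Relative activity compares each variant's cleaved/total read fraction with that of the unmutated ribozyme. To get these fractions, barcoded CPEB3 ribozyme libraries from rounds of error-prone PCR were transcribed with T7 RNA polymerase for 5 hours at 37°C and then given 15 min of DNase I treatment before EDTA was added. The RNAs were reverse transcribed with template switching and sequenced on Illumina, and DNA sequencing linked barcodes to variants. A minimum of 5 reads applied, and three batches were averaged.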
Work on A15G A18U G42C U66C U80C yielded a self-cleavage of 0.05. A15G A18U U26C U51G gave a self-cleavage of 0.08. With A15G A18U U43G the self-cleavage was 0.19. A15G A18U U58C gave a self-cleavage of 0.11. A15G A18U U69C showed a self-cleavage of 0.17. A15G A20C A45U A57G A65G showed a self-cleavage of 0.1. Variant A15G A20C U31A has a self-cleavage of 0.37. Variant A15G A20G A21G A65G U66C U69C U76A has a self-cleavage of 0.17. A15G A20G A64C showed a self-cleavage of 0.29. A15G A20G G22C U51A U54C showed a self-cleavage of 0.2. With A15G A20G U26A C38U U51C the self-cleavage was 0.1. Work on A15G A20G U26A G42A U69A U72C A77U yielded a self-cleavage of 0.07. For A15G A20G U43C U66C U67C, the self-cleavage was 0. Work on A15G A20G U43C U78A yielded a self-cleavage of 0.06. Variant A15G A20G U58C G63C A64G has a self-cleavage of 0.19. In the case of A15G A20U C27U U54C, the self-cleavage is reported as 0.08. In the case of A15G A20U U25C U60C, the self-cleavage is reported as 0.35. For A15G A21C C62U, the self-cleavage was 0.12. A15G A21C U43C C59U A64U A75G U78C gave a self-cleavage of 0.11. A15G A21G A28G U31A U60C U69A U80C showed a self-cleavage of 0.05. In the case of A15G A21G A28U U78C, the self-cleavage is reported as 0.35. In the case of A15G A21G A47C, the self-cleavage is reported as 0.42. For A15G A21G A47C U54A C68U U76C, the self-cleavage was 0.26. For A15G A21G A64U, the self-cleavage was 0.33. A15G A21G A65G showed a self-cleavage of 0.31. A15G A21G A75G showed a self-cleavage of 0.37. Variant A15G A21G C27A A64G has a self-cleavage of 0.12. A15G A21G C27A G42A U51A showed a self-cleavage of 0.02. A15G A21G C40A showed a self-cleavage of 0.35. Work on A15G A21G C40U U41C A57G U74C U78C yielded a self-cleavage of 0.26. A15G A21G G22C U80C gave a self-cleavage of 0.08. With A15G A21G U25A U80C the self-cleavage was 0.5. A15G A21G U26A A65G U72C U80G gave a self-cleavage of 0.05. For A15G A21G U41A U72C, the self-cleavage was 0.32. For A15G A21G U48C C68A U78A, the self-cleavage was 0.11. Work on A15G A21G U48C U51A A56G yielded a self-cleavage of 0.07. In the case of A15G A21G U48G U76A, the self-cleavage is reported as 0.35. A15G A21G U54A U66C gave a self-cleavage of 1.17. For A15G A21G U74C, the self-cleavage was 0.51. For A15G A21U C27A G42A U80A, the self-cleavage was 0.18. Variant A15G A21U U43C U54C U72A has a self-cleavage of 0.3. In the case of A15G A28C U41C A47G, the self-cleavage is reported as 0.41. A15G A28G A35G A45G U72A gave a self-cleavage of 0.07. With A15G A28G G30A A35G the self-cleavage was 0.04. With A15G A28G U41C U54A the self-cleavage was 0.55. Work on A15G A28G U43C A47U U48C yielded a self-cleavage of 0.07. Variant A15G A28G U67C U72C U80C has a self-cleavage of 0.29. In the case of A15G A28U A45G U60A, the self-cleavage is reported as 0.24. Variant A15G A28U A64G A75G has a self-cleavage of 0.16. A15G A28U G33U U49A showed a self-cleavage of 0.23. In the case of A15G A28U U31A A57U A65G U67A, the self-cleavage is reported as 0.09. In the case of A15G A28U U48C A64G U69C, the self-cleavage is reported as 0.13. A15G A28U U72C showed a self-cleavage of 1.08. Variant A15G A28U U72C U76C has a self-cleavage of 1.09. With A15G A35C U43A U49C A57U U78A the self-cleavage was 0.25. Work on A15G A35C U54A U58C C68A A77U yielded a self-cleavage of 0.06. With A15G A35G A45G U58A U69C the self-cleavage was 0.08. A15G A35G C39A gave a self-cleavage of 0.42. In the case of A15G A35G U51C U60G U67A, the self-cleavage is reported as 0.13. In the case of A15G A35G U54C A57U, the self-cleavage is reported as 0.29. Variant A15G A35G U58A has a self-cleavage of 0.24. For A15G A35G U67A, the self-cleavage was 0.39. With A15G A35G U67C the self-cleavage was 0.16. A15G A35U A56U showed a self-cleavage of 0.14. With A15G A35U A64U U72A the self-cleavage was 0.11. Work on A15G A35U C38G A45U A47G yielded a self-cleavage of 0.07. With A15G A35U G70A U74C the self-cleavage was 0.19. With A15G A35U U41A C59U U66C the self-cleavage was 0.06. Work on A15G A35U U72C yielded a self-cleavage of 0.97. For A15G A45G C62U U66C U76C, the self-cleavage was 0.14. Work on A15G A45G U49C U67C yielded a self-cleavage of 0.15. A15G A45G U67C U80C showed a self-cleavage of 0.32. Work on A15G A45U A64G U72A yielded a self-cleavage of 0.2. Variant A15G A45U A65G has a self-cleavage of 0.2. In the case of A15G A47G C62U U67C U80C, the self-cleavage is reported as 0.25. A15G A47G U48A G52U C62U U67C U80C showed a self-cleavage of 0.04. A15G A47G U48C gave a self-cleavage of 0.23. In the case of A15G A47G U60C U78C, the self-cleavage is reported as 0.14. A15G A47G U69A showed a self-cleavage of 0.29. For A15G A56C U60A, the self-cleavage was 0. With A15G A56C U72A the self-cleavage was 0.29. For A15G A56G A64U U72A, the self-cleavage was 0.23. Variant A15G A56G U58C C71U A75G A77U has a self-cleavage of 0.23. For A15G A56G U66C, the self-cleavage was 0.35. With A15G A56G U69A U74C the self-cleavage was 0.23. In the case of A15G A56G U80A, the self-cleavage is reported as 0.83. Variant A15G A56U A75G has a self-cleavage of 0.39. Work on A15G A56U U78C yielded a self-cleavage of 0.36. A15G A64G U72C showed a self-cleavage of 1.2. For A15G A64G U78C, the self-cleavage was 0.66. A15G A64G U78G gave a self-cleavage of 0.39. A15G C17A U25C A28C showed a self-cleavage of 0.4. Variant A15G C17A U72C has a self-cleavage of 0.88. Variant A15G C17U A21G U41A U69C has a self-cleavage of 0.03. For A15G C17U U31C U41C U43C G46U U51A, the self-cleavage was 0.03. Variant A15G C23A U41C A45G A57G A65U U80A has a self-cleavage of 0.15. With A15G C23U A56G the self-cleavage was 0.1. Work on A15G C23U U25C yielded a self-cleavage of 0.28. For A15G C23U U60C, the self-cleavage was 0.03. With A15G C23U U69G U72C the self-cleavage was 0.07. A15G C29A A56G U67C gave a self-cleavage of 0.06. A15G C29U G30U U58C U76C gave a self-cleavage of 0.15. A15G C29U U31C A57G A64U gave a self-cleavage of 0.08. A15G C29U U58C A64G showed a self-cleavage of 0.09. With A15G C29U U69A U80A the self-cleavage was 0.13. With A15G C32A U41C U72C the self-cleavage was 0.32. In the case of A15G C32U A45G U54C U67C, the self-cleavage is reported as 0.07. With A15G C32U A56G A65G the self-cleavage was 0.04. Variant A15G C37U A45G U58C A65G has a self-cleavage of 0.04. A15G C37U A56G A64U U78A showed a self-cleavage of 0.11. With A15G C38A A56G U66C U76C the self-cleavage was 0.08. A15G C38A U43C U58C U69C gave a self-cleavage of 0.12. Variant A15G C38A U69C has a self-cleavage of 0.16. Work on A15G C38U U43C yielded a self-cleavage of 0.15. A15G C39U U41G U43C U48C C62A showed a self-cleavage of 0.3. With A15G C39U U49C the self-cleavage was 0.2. Variant A15G C39U U74C has a self-cleavage of 1.21. For A15G C40A A56U, the self-cleavage was 0.11. A15G C40A A64G U74C showed a self-cleavage of 0.45. For A15G C40U A45G G63U, the self-cleavage was 0.62. A15G C40U G70C gave a self-cleavage of 0.11. For A15G C40U U58A, the self-cleavage was 0.16. A15G C44G U80C showed a self-cleavage of 0.21. Variant A15G C68A U72C A75U has a self-cleavage of 0.39. Work on A15G C68G U72A yielded a self-cleavage of 0.17. Work on A15G G16A U25A U66C U72A yielded a self-cleavage of 0.05. A15G G16A U25C U41C U54C A65U U80C gave a self-cleavage of 0.04. Work on A15G G19C A21G G63U yielded a self-cleavage of 0.36. For A15G G19C A28U U41A U58C U60A, the self-cleavage was 0.17. With A15G G19U A21U U67C U72A the self-cleavage was 0.03. A15G G19U C27U A56U U69C U72C showed a self-cleavage of 0.07. Work on A15G G19U U31C yielded a self-cleavage of 0.07. Work on A15G G19U U67C U69A yielded a self-cleavage of 0.07. A15G G22A A35C C62U showed a self-cleavage of 0.05. For A15G G22C A45U U54C U69A, the self-cleavage was 0.35. Work on A15G G22C G63A U66C U69A yielded a self-cleavage of 0.24. In the case of A15G G22U A45U A65U U78C, the self-cleavage is reported as 0.09. For A15G G24A G61A U78C, the self-cleavage was 0.12. A15G G30A U43A U72C U80C gave a self-cleavage of 0.26. In the case of A15G G33A A65G, the self-cleavage is reported as 0.08. For A15G G33A U41A U54C, the self-cleavage was 0.25. Variant A15G G33A U43C has a self-cleavage of 0.23. For A15G G33U G42U A75G U76G, the self-cleavage was 0.07. Work on A15G G36A C81G yielded a self-cleavage of 0.26. For A15G G42A C50A A56G A77G, the self-cleavage was 0.07. A15G G42C A47U G63U showed a self-cleavage of 0.19. Variant A15G G42U A64G has a self-cleavage of 0.08. For A15G G42U U43C U51G, the self-cleavage was 0.41. Variant A15G G52A A56G has a self-cleavage of 0.82. For A15G G52A U58C C62G U72A, the self-cleavage was 0.19. Work on A15G G52U A57C U60C yielded a self-cleavage of 0.23. Work on A15G G55A U67A U69G U78C yielded a self-cleavage of 0.13. A15G G55A U69C U76G gave a self-cleavage of 0.48. Work on A15G G61A U74C yielded a self-cleavage of 0.37. With A15G U25A A47G U58C U66C the self-cleavage was 0.25. With A15G U25A U31C A45G A56G A65G U78C the self-cleavage was 0. A15G U25A U31G C32U U67C A77G showed a self-cleavage of 0.06. With A15G U25A U51C A65G the self-cleavage was 0.1. A15G U25C A28G U54C G61A U72C C79U showed a self-cleavage of 0.03. Work on A15G U25C A35G A47G U66C U69A yielded a self-cleavage of 0.12. In the case of A15G U25C A35U A56U, the self-cleavage is reported as 0.05. Variant A15G U25C A65C U66C U78C has a self-cleavage of 0.05. A15G U25C C29U U49A A77G gave a self-cleavage of 0.03. Variant A15G U25C C71U has a self-cleavage of 0.2. Variant A15G U25C G42U has a self-cleavage of 0.09. Variant A15G U25C G55A A56G has a self-cleavage of 0.11. A15G U25C U31A showed a self-cleavage of 0.11.
